The campaign covered roughly 310,000 compounds. About 2,200 (0.71%) showed an effect of 50% or more. The effect is printed as a negative number. Some of the results follow.
Target: human ether-à-go-go-related gene (hERG) potassium channel (human, UniProt Q12809)
Test: primary screen, population patch clamp on CHO cells stably expressing hERG

human ether-à-go-go-related gene (hERG) potassium channel, sequence (Q12809 whole entry, looked up): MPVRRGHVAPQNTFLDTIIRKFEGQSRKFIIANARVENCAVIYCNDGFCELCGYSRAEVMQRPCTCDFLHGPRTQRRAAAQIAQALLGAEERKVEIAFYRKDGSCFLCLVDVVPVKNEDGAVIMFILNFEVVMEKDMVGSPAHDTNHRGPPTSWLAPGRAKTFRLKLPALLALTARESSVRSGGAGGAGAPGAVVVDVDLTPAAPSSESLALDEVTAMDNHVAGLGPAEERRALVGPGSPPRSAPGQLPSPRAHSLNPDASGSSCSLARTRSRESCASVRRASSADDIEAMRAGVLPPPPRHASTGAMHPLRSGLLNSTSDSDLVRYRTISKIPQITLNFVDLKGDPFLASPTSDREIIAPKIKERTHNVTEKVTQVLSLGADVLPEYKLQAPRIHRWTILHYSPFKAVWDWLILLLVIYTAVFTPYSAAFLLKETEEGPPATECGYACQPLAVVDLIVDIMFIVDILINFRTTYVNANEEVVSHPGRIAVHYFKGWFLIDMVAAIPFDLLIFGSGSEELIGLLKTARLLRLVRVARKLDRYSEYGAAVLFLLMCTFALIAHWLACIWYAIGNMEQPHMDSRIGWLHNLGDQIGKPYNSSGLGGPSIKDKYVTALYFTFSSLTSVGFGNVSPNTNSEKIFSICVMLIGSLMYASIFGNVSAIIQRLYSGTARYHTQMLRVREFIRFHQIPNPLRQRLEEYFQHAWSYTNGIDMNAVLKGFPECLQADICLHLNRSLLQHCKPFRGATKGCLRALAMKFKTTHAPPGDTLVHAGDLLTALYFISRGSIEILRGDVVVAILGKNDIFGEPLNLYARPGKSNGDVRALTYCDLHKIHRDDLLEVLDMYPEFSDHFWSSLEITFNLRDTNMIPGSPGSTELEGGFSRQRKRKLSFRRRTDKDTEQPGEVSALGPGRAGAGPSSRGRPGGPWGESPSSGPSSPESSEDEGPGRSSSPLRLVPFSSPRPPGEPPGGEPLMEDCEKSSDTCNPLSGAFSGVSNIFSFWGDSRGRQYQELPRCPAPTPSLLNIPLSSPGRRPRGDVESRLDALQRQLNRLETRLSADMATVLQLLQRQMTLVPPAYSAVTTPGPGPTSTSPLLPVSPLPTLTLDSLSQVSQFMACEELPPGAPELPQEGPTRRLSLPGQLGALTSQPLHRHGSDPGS

Point of comparison: `CCCN(CC(=O)Nc1ccc(F)c(F)c1F)C(=O)Cc1ccc(S(=O)(=O)N2CCOCC2)s1`, “hERG current change (%, negative = inhibition) at 1uM” value 8.43%. Against it:
- COc1cccc(C(=O)COc2ccc3ccc(=O)oc3c2)c1 — lower, 4.41%
- COc1cc(C(=O)Nc2nc3ccccc3[nH]2)ccc1OC(F)F — lower, -0.921%
- COc1ccccc1OCC(=O)Nc1ccc(S(=O)(=O)Nc2cc(C)nc(C)n2)cc1 — higher, 11.9%
- O=C(Nc1ccc(Cl)c(Cl)c1)N1CCSCC1 — lower, 2.27%
- C=CCn1c(=O)c2c(nc(-c3ccc(S(=O)(=O)O)cc3)n2C)n(C)c1=O — higher, 15.1%
- CC(=O)Oc1ccc2c(=O)c(Oc3ccccc3)c(C)oc2c1OC(C)=O — higher, 12.7%
- COc1cccc(C(=O)Oc2cc(C)[nH]c(=O)c2[N+](=O)[O-])c1 — lower, 4.45%
- Cc1cc(C(=O)CSc2nnnn2C)c(C)n1-c1ccc2c(c1)OCCO2 — lower, 0.31%
- Cc1ccc(SCC(=O)NC(=O)NCc2ccccc2)c(C)c1 — higher, 11.1%
- CCCCCn1c(=O)c(C(=O)Nc2nc3ccccc3[nH]2)c(O)c2ccccc21 — higher, 12.6%
- CN1CCN(C(=O)c2ccc3c(=O)n(-c4ccc(F)cc4)c(=S)[nH]c3c2)CC1 — higher, 11.4%
- O=C(NCc1ccc2c(c1)OCO2)c1ccc(N2CCCCCC2)c([N+](=O)[O-])c1 — higher, 14.8%
- CC(=O)N/C(=C\c1ccc(Cl)cc1)C(=O)O — higher, 15.2%
- COc1ccccc1CNC(=O)COC(=O)/C=C/c1ccc(OC(F)F)c(OC)c1 — lower, 4.73%
- COc1ccc(S(=O)(=O)N2CCOCC2)cc1NC(=O)c1ccncc1 — lower, 4.74%
- COc1ccc(CNC(=O)C(NC(C)=O)C(=O)Nc2ccc(OC)cc2)cc1 (stereo not shown) — higher, 12.9%
- COc1ccc(-c2csc(=Nc3ccccc3)n2CCO)cc1 — higher, 17.8%
- COc1cc(C(=O)NCC(=O)NCCSc2ccc(Br)cc2)cc(OC)c1OC — higher, 10.5%
- O=C(c1ccco1)N1CCN(S(=O)(=O)c2ccc(Br)cc2)CC1 — higher, 9%
- CCOc1ccccc1NC(=S)N1CCN(c2ccccc2)CC1 — lower, 7.91%
- O=C(O)CSc1ncnc2c1sc1nc(-c3ccccc3)c3c(c12)CCC3 — higher, 10.2%
- CCSc1sc(CC)cc1C=O — higher, 9.21%
- CN(Cc1ccc(Cl)c(Cl)c1)C(=O)c1cccc(S(=O)(=O)N2CCN(Cc3ccccc3)CC2)c1 — lower, 3.36%
- COc1ccc(S(=O)(=O)N(CC(=O)NCC2CCCO2)c2ccc(Cl)cc2)cc1 (stereo not shown) — lower, 3.43%
- COc1ccc(-c2nnc3ccc(SCC(=O)Nc4nc5ccc(C)cc5s4)nn23)cc1OC — higher, 10.7%
- CCOc1ccc(C2C(C#N)=C(N)Oc3nc[nH]c(=O)c32)cc1OC (stereo not shown) — higher, 9.81%
- S=c1[nH]nc(C2CC2)n1Cc1ccccc1 — higher, 30.9%
- COc1ccc(Cn2c(=S)[nH]c3cc(C(=O)N4CCN(c5ccccc5)CC4)ccc3c2=O)cc1 — higher, 16.7%
- Cc1ccnc(NC(=O)/C=C/c2ccccc2[N+](=O)[O-])c1 — higher, 17.8%
- Cc1ccc(C)c(S(=O)(=O)NCc2ccc3c(c2)OCO3)c1 — higher, 12.1%
- Oc1ccc(-c2nccc(-c3ccccn3)n2)cc1 — higher, 14.5%
- Cc1ccc(C(=O)N/C(=C\c2cccs2)C(=O)NCCCN2CCOCC2)cc1 — lower, -40.7%
- COC(=O)Cc1ccc(NC(=S)NCCCN2CCOCC2)cc1 — higher, 10%
- COc1cc(NC(=O)CCc2nnc3ccc(N4CCCC4)nn23)cc(OC)c1OC — higher, 9.17%
- O=C(Cc1ccccc1F)OCN1C(=O)c2ccccc2C1=O — higher, 14.7%
- Cn1c(N)c(C(=O)COC(=O)C2CC(O)CN2S(=O)(=O)c2ccc(Cl)cc2)c(=O)n(C)c1=O (stereo not shown) — lower, 7.81%
- COc1ccccc1N1CCN(CC(=O)Nc2ccc(CN3CCCCC3)cc2)CC1.Cl — lower, 7.6%
- CC(=O)Nc1ccc(NC(=O)COc2ccc(-c3ccc(C#N)cc3)cc2)cc1 — lower, 8.3%
- Cc1nnc(NC(=O)CCSCCC(=O)Nc2nnc(C)s2)s1 — higher, 9.93%
- CCCCC(=O)Oc1c(S(=O)(=O)c2ccc(C)cc2)c(C)nn1C(C)(C)C — lower, -10.8%
- Cc1cccc(N(C)S(=O)(=O)c2ccc3c(c2)C(C)(C)C(=O)N3C)c1 — higher, 9.57%
- O=C(NCCOc1ccccc1)c1n[nH]c(=O)c2ccccc12 — higher, 11.5%
- CCC(C)NC(=O)c1nc2c(nnn2Cc2ccccc2Cl)c(=O)[nH]1 (stereo not shown) — lower, 5.3%
- CC(c1ccco1)N(C(=O)Nc1ccccc1)C1CCCCC1 (stereo not shown) — higher, 9.92%
- C=CCOc1ccc(C(c2c(O)nc(SC)[nH]c2=O)c2c(O)nc(SC)[nH]c2=O)cc1 — higher, 13.5%
- O=C(CC(c1ccccc1)c1cc(Br)ccc1O)NCCCN1CCOCC1 (stereo not shown) — lower, -10.8%
- CCOC(=O)c1[nH]c(C)c(C(=O)OCC(=O)N2CCCCC2C)c1C (stereo not shown) — higher, 15.7%
- CC1CCC2=NN(C(=O)c3ccco3)C(O)(C(F)(F)F)C2C1 (stereo not shown) — higher, 13.6%
- Cc1cccc(NC(=O)CN2C(=O)CSC2=O)c1 — lower, -4.48%
- Brc1ccc(-c2nnc3n2-c2ccccc2CC3)cc1 — lower, -2.98%
- CC(NC(=O)CSc1nc(C2CC2)n(-c2ccccc2)n1)c1ccco1 (stereo not shown) — lower, -7.78%
- CN(C)C(=O)c1ccc(Nc2nc(-c3cccs3)nc3ccccc23)cc1 — lower, 4.89%
- CN(C)CCN(C(=O)c1ccc(S(=O)(=O)N(C)C)cc1)c1nc2cc3c(cc2s1)OCCO3.Cl — lower, -0.87%
- Cc1cnc(NC(=O)C2CC(=O)N(c3cccc(Cl)c3)C2)s1 (stereo not shown) — lower, -1.08%
- Cc1cccc(N2CCN(C(=O)C3CCC(=O)N(C4CC4)C3)CC2)c1C (stereo not shown) — higher, 12.6%
- COc1ccc(-n2c(Cc3cccn3C)nnc2SCC(=O)NC2CCCC2)cc1 — lower, 2.53%
- CC1(C)CC2(C)OC(=N)C1(C#N)C2(C#N)C#N (stereo not shown) — higher, 11.2%
- CCOc1ccc(NC(=O)CCNS(=O)(=O)c2ccc(Br)s2)cc1 — lower, -6.05%
- Cc1nc2ccccn2c1C(=O)N/N=C/c1ccc(CNC(=O)C(=O)Nc2ccccc2)o1 — lower, 0.629%
- Cc1ccc(-c2cc(C(=O)NCc3cnn(C)c3C)c3cc(Br)ccc3n2)cc1 — higher, 10.6%
- CC(C)(C)c1ccccc1NC(=O)CN1C(=O)NC(Cc2ccccc2)C1=O (stereo not shown) — higher, 13.5%
- CCc1noc(C)c1C(=O)OCC(=O)Nc1cccc(C)c1 — lower, 2.19%
- Nc1c2c(nc3cccc(Cl)c13)N(c1ccccc1)CC2 — higher, 27.5%
- CCN1CCCC1CNC(=O)Cn1cnc2ccc(S(=O)(=O)N3CCC(C)CC3)cc2c1=O (stereo not shown) — lower, -11.3%
- O=C(NCC(c1cccs1)N1CCOCC1)C1CCN(S(=O)(=O)c2ccccc2C(F)(F)F)CC1 (stereo not shown) — lower, -13%
- COc1cc(C(=O)Oc2cccc(C(=S)N3CCOCC3)c2)cc(OC)c1OC — lower, 3.58%
- CC(C)C12CN3CC(C(C)C)(CN(C1)C3c1ccccc1)C2O (stereo not shown) — lower, 6.19%
- CCOC(=O)c1c(C)[nH]c(C(=O)COC(=O)CNC(=O)c2ccccc2Cl)c1C — higher, 11.6%
- COc1ccc(C2CC(c3ccccc3)=NN2C(=O)COC(=O)c2cccnc2)cc1 (stereo not shown) — higher, 12.2%
- Cc1cc(NC(=O)CCc2ccc(C)o2)no1 — lower, 3.28%
- Cc1c(C(=O)N2CCCCCC2)c(S(=O)(=O)NCc2ccccc2Cl)c(C)n1C — lower, 4.3%
- O=Cc1ccc(OCC(=O)NC(=O)NC2CCCCC2)cc1 — lower, -2.06%
- CC(C)(C)c1ccc(C(=O)O)c(C(=O)c2ccc(C(=O)O)cc2)c1 — lower, 8.21%
- CCCOc1ccc(CCN2CCC(=O)NC2=O)cc1C — lower, 5.45%
- O=c1c2ccccc2ncn1CCOCCOc1cccc(Br)c1 — lower, 1.26%
- O=C(NS(=O)(=O)N1CCCC1)C1=C(N2CCCC2)COC1=O — higher, 16.2%
- COc1ccc(NC(=O)COC(=O)/C=C/c2cnc3ccccc3n2)cc1 — higher, 10%
- Cc1cccc(-n2ncc3c(N4CCC(C)CC4)ncnc32)c1 — higher, 15.1%
- Cc1cccc(/C=N/NC(=O)c2ccc(Br)cc2)c1 — higher, 9.11%
- CC(CN1CCOCC1)OC(=O)c1ccccc1Br.Cl (stereo not shown) — higher, 8.73%
- CC(C)N1CCN(Cc2nc3c(s2)CCCC3)CC1CCO (stereo not shown) — higher, 13%
- COC(=O)CNc1nc(-c2cccnc2)nc2ccccc12 — higher, 20%
- CC1Cc2ccccc2N1C(=O)Cn1cnc2ccccc21 (stereo not shown) — higher, 13.3%
- Cc1ccc(S(=O)(=O)Nc2ccc3c(c2)nc(CCN2CCCC2)n3C)cc1 — lower, -13.7%
- CCC(=O)Nc1cc2nn(-c3ccc(OC)cc3)nc2cc1C — higher, 9.28%
- CCn1c(=O)c2sccc2n2c(CCCC(=O)NCCc3ccc(S(N)(=O)=O)cc3)nnc12 — higher, 18%
- CN1CCC(=NNC(=O)CN(c2ccc(Oc3ccccc3)cc2)S(C)(=O)=O)CC1 — lower, -4.45%

Reference: article PMC4336329 (PLoS ONE, 2015)
